Measured values published in the supplement of paper PMC4967469.
By IC50 is meant the dose at which the fit gives 50% viability; a limit (>, <) means that the fit lies beyond the doses tested. The AUC spans the tested range (256-fold, ending at the top dose) of the same fit; it is 1 without any effect and falls as sensitivity rises. For part of these data: Any top dose called inferred comes from the curve model; the source does not state it. For part of these data: Where an entry number is given, a second screen of the drug exists; the two often differ.

What was measured:
Assay in all cases: Viability of human cancer cell lines after 72 h of drug (GDSC screen)
Belinostat = compound: O=C(/C=C/c1cccc(S(=O)(=O)Nc2ccccc2)c1)NO [Belinostat]; conditions: top dose 20 µM; top dose inferred
Method: (§1)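 Human cancer cell lines in 384-well plates, medium with 10% serum, drug for 72 h over a 256-fold dose range (nine 2-fold or five 4-fold steps up to the top dose). Adherent lines were fixed and stained with the nucleic acid dye Syto60, suspension lines read with resazurin; signal relative to control wells, capped at 0 and 100%. One two-parameter sigmoid per drug and line, fitted in a mixed model over all curves with the slope shared within a line.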

Docetaxel = compound: CC(=O)O[C@@]12CO[C@@H]1C[C@H](O)[C@@]1(C)C(=O)[C@H](O)C3=C(C)[C@@H](OC(=O)[C@H](O)[C@@H](NC(=O)OC(C)(C)C)c4ccccc4)C[C@@](O)([C@@H](OC(=O)c4ccccc4)[C@H]21)C3(C)C [Docetaxel]; conditions: top dose 0.0125 µM
Method: as §1

NSC-207895 = compound: CN1CCN(c2ccc([N+](=O)[O-])c3no[n+]([O-])c23)CC1 [NSC-207895]; conditions: top dose 20 µM; top dose inferred
Method: as §1

OSI-906 = compound: C[C@]1(O)C[C@@H](c2nc(-c3ccc4ccc(-c5ccccc5)nc4c3)c3c(N)nccn32)C1 [OSI-906]; conditions: top dose 2.56 µM; top dose inferred
Method: as §1

JNK Inhibitor VIII = compound: CCOc1nc(NC(=O)Cc2cc(OC)ccc2OC)cc(N)c1C#N [JNK Inhibitor VIII]; conditions: top dose 10 µM; top dose inferred
Method: as §1

SB-715992 = compound: Cc1ccc(C(=O)N(CCCN)[C@@H](c2nc3cc(Cl)ccc3c(=O)n2Cc2ccccc2)C(C)C)cc1 [SB-715992]; conditions: top dose 0.128 µM; top dose inferred
Method: as §1

YM155 = compound: COCC[n+]1c2c(n(Cc3cnccn3)c1C)C(=O)c1ccccc1C2=O [YM155]; conditions: top dose 5.12 µM
Method: as §1

AMG-706 = compound: CC1(C)CNc2cc(NC(=O)c3cccnc3NCc3ccncc3)ccc21 [AMG-706]; conditions: top dose 2 µM; top dose inferred
Method: as §1

JQ1 = compound: Cc1sc2c(c1C)C(c1ccc(Cl)cc1)=N[C@@H](CC(=O)OC(C)(C)C)c1nnc(C)n1-2 [JQ1]
Method: as §1

FTI-277 = compound: COC(=O)[C@H](CCSC)NC(=O)c1ccc(NC[C@@H](N)CS)cc1-c1ccccc1 [FTI-277]; conditions: top dose 1.024 µM; top dose inferred
Method: as §1

[1] = top dose 1 µM, screen: GDSC drug entry 1218, top dose inferred
[2] = top dose 2.56 µM, screen: GDSC drug entry 163

Row | Cell Line | AUC (Belinostat) | IC50 (Belinostat) | AUC (Docetaxel) | IC50 (Docetaxel) | AUC (NSC-207895) | IC50 (NSC-207895) | AUC (OSI-906) | IC50 (OSI-906) | AUC (JNK Inhibitor VIII) | IC50 (JNK Inhibitor VIII) | AUC (SB-715992) | IC50 (SB-715992) | AUC (YM155) | IC50 (YM155) | AUC (AMG-706) | IC50 (AMG-706) | AUC (JQ1; [1]) | IC50 (JQ1; [1]) | AUC (JQ1; [2]) | IC50 (JQ1; [2]) | AUC (FTI-277) | IC50 (FTI-277)
1 | CHSA0011 (chondrosarcoma, adherent) | 0.849 | > 20000 nM | 0.905 | > 12.5 nM | 0.964 | > 20000 nM | 0.98 | > 2560 nM | 0.924 | > 10000 nM | 0.979 | > 128 nM | 0.13 | < 20 nM | 0.675 | 473 nM | 0.974 | > 1000 nM | 0.838 | > 2560 nM | 0.98 | > 1020 nM
2 | COLO-783 (melanoma, adherent) | 0.762 | 6890 nM | 0.921 | > 12.5 nM | 0.99 | > 20000 nM | 0.982 | > 2560 nM | 0.959 | > 10000 nM | 0.982 | > 128 nM | 0.651 | 825 nM | 0.907 | > 2000 nM | 0.967 | > 1000 nM | 0.929 | > 2560 nM | 0.986 | > 1020 nM
3 | G-292 Clone A141B1 (osteosarcoma, adherent) | 0.855 | > 20000 nM | 0.83 | > 12.5 nM | 0.953 | > 20000 nM | 0.813 | > 2560 nM | 0.952 | > 10000 nM | 0.967 | > 128 nM | 0.3 | 61.5 nM | 0.938 | > 2000 nM | 0.969 | > 1000 nM | 0.633 | 465 nM | 0.867 | > 1020 nM
4 | HCC1937 (breast, adherent) | 0.522 | 1440 nM | 0.853 | 12.2 nM | 0.985 | > 20000 nM | 0.974 | > 2560 nM | 0.967 | > 10000 nM | 0.918 | > 128 nM | 0.112 | < 20 nM | 0.926 | > 2000 nM | 0.967 | > 1000 nM | 0.887 | > 2560 nM | 0.983 | > 1020 nM
5 | HCC-78 (lung adenocarcinoma, adherent) | 0.336 | 402 nM | 0.829 | 9.67 nM | 0.801 | 11700 nM | 0.982 | > 2560 nM | 0.933 | > 10000 nM | 0.763 | 53.8 nM | 0.047 | < 20 nM | 0.929 | > 2000 nM | 0.948 | > 1000 nM | 0.963 | > 2560 nM | 0.983 | > 1020 nM
6 | HSC-2 (head and neck, adherent) | 0.612 | 2470 nM | 0.497 | 0.765 nM | 0.989 | > 20000 nM | 0.983 | > 2560 nM | 0.989 | > 10000 nM | 0.952 | > 128 nM | 0.022 | < 20 nM | 0.983 | > 2000 nM | 0.983 | > 1000 nM | 0.509 | 169 nM | 0.952 | > 1020 nM
